Experimental data taken from PubChem BioAssay AID360 (National Center for Advancing Translational Sciences (NCATS), 2006).
In all, about 48,000 compounds went through this assay and about 550 (1.1%) were called active. Inconclusive results (about 4%) are left out. Cut-off read from the data, not from the text of the source: active = potency below about 15 µM; inconclusive = mostly about 16 µM to 33 µM; inactive = weaker than that. Some of the results follow.

target: Lysosomal acid glucosylceramidase (Homo sapiens) (UniProt P04062); test: Glucocerebrosidase; conditions: purified enzyme, resorufin glucoside fluorescence (screen aimed at inhibitors), 20 min;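 note: the screen sought inhibitors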
Summary of the method: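 Wild-type enzyme at 0.2 nM final in 50mM citric acid/KH2PO4, 10mM sodium taurocholate, 0.01% tween-20, pH 5.9, with resorufin beta-D-glucopyranoside at 30 uM final. Compounds titrated, 20 min at RT, red fluorescence read; AC50 from titration.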
Potency is the fitted concentration of half-maximal effect.

UniProt P04062, sequence (P04062 whole entry, looked up): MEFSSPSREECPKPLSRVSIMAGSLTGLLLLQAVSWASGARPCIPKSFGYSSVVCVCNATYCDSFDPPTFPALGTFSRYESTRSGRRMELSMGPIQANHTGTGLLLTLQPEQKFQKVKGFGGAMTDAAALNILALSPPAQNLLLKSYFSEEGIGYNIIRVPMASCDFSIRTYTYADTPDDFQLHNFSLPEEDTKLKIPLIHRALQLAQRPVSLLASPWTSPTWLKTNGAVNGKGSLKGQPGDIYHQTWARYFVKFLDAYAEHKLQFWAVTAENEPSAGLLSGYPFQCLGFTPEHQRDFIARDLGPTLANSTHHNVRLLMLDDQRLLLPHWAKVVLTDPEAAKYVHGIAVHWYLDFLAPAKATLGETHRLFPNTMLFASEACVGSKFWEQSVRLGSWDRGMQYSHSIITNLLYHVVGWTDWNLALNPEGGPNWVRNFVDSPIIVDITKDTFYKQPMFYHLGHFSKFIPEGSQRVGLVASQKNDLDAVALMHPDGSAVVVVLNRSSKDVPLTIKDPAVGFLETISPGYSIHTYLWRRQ

Potency, inactive:
COc1ccccc1NC(=O)C(C)NS(=O)(=O)c1ccccc1 (stereo not given) > 76.9 µM
Cc1noc(C)c1COC(=O)Cn1c(C)nc2ccccc21 > 76.9 µM
COc1ccc(OCCNC(=O)c2ccccc2OCC(=O)N2CCCCC2)cc1 > 76.9 µM
CCOc1ccc(N2CC(C(=O)OC)CC2=O)cc1 (stereo not given) > 76.9 µM
NC(=O)C1CCN(C(=O)C2c3ccccc3C(=O)N3CCc4ccccc4C23)CC1 (stereo not given) > 76.9 µM
O=C(NCc1cccnc1)C(C(=O)c1ccc(F)cc1)n1ccccc1=O (stereo not given) > 76.9 µM
CC1CC1C(=O)OCC(=O)NCc1ccccc1Cl (stereo not given) > 76.9 µM
O=C1c2ccccc2C(=O)N1c1nc(-c2cccs2)cs1
CSc1ccccc1C(=O)Nc1cccc(N(C)S(C)(=O)=O)c1 > 76.9 µM
CC(NC(=O)COC(=O)CCNC(=O)c1ccco1)C12CC3CC(CC(C3)C1)C2 (stereo not given)
COc1nc(-c2ccc(Cl)cc2)ccc1-c1noc(-c2ccco2)n1 > 76.9 µM
COc1ccc(OC)c(CN2CCN(C(=O)c3cccs3)CC2)c1 > 76.9 µM
CCn1c2c(c3ccc(OC)cc31)CCCC2=O > 76.9 µM
O=C(COc1ccc(-n2cnnn2)cc1)N1CCN(c2ccc(F)cc2)CC1 > 76.9 µM
CCOc1ccc(-n2ccnc2SCC(=O)NCc2ccc3c(c2)OCO3)cc1 > 76.9 µM
N#Cc1nc(-c2ccc(OCc3ccccc3)cc2)oc1NCc1cccnc1 > 76.9 µM
CCOC(=O)NCc1cc(-c2nn(C)c(=O)c3ccccc23)ccc1C > 76.9 µM
CCC(=O)NCCNC(=O)c1c(SC)nsc1SC > 76.9 µM
O=c1c(-c2ccccc2)coc2c(CN3CCCC3)c(O)ccc12 > 76.9 µM
Cc1cc(NC(=O)c2ccc3c(c2)C(=O)N(Cc2cccnc2)C3=O)no1 > 76.9 µM
COc1ccc(Cl)cc1S(=O)(=O)N1CCN(Cc2ccc3c(c2)OCO3)CC1
Cc1cccc(-n2ncc3c(N4CCc5ccccc54)ncnc32)c1 > 76.9 µM
O=C(Nc1nnc(-c2ccccc2)o1)NC1CCCCC1 > 76.9 µM
Cc1nc(N2CCN(C(=O)c3ccco3)CC2)c2c3c(sc2n1)CCC3 > 76.9 µM
Cc1nn(-c2cc(N3CCOCC3)ccc2N)c(=O)c2ccccc12 > 76.9 µM
Cc1nn2c(NCCCN3CCOCC3)c3c(nc2c1-c1ccccc1)CCC3
COCCn1c(=O)[nH]c2cc(C(=O)NCCN3CCN(c4ccc(OC)cc4)CC3)ccc2c1=O > 76.9 µM
CC(C)c1ccc(S(=O)(=O)N2CCN(CC(=O)Nc3ccc4c(c3)OCO4)CC2)cc1 > 76.9 µM
N#CN=C1SCCS1 > 76.9 µM
O=C(Nc1nncs1)c1cccc(S(=O)(=O)N2CCCC2)c1 > 76.9 µM
CCCCC(=O)Nc1cc(NC(=O)CCCC)cc(C(=O)O)c1 > 76.9 µM
CC(C)n1c(Sc2nccn2C)nc2c1c(=O)n(C)c(=O)n2C > 76.9 µM
c1cnc(N2CC[N+]3(CCCC3)CC2)nc1 > 76.9 µM
Cc1cc(NC(=O)CSc2nc(CCC3CCCC3)nc3ccccc23)no1 > 76.9 µM
CCOC(=O)NCCc1c(C)nc2c(c(C)nn2C(C)(C)C)c1C > 76.9 µM
O=C(O)CCCNS(=O)(=O)c1ccc2ccccc2c1 > 76.9 µM
O=C(NC1CCCCCCC1)c1ccc2c(c1)OCO2 > 76.9 µM
COc1ccc(C2C(CC(=O)O)=C(O)C(=O)N2c2ccccc2)cc1 (stereo not given) > 76.9 µM
C=CCOc1cccc(C2C(C(=O)c3ccc(C)o3)=C(O)C(=O)N2c2nccs2)c1 (stereo not given) > 76.9 µM
O=C(O)CCn1cnc2ccccc2c1=O > 76.9 µM
O=C(N1CCOCC1)N1CCN(S(=O)(=O)N2CCOCC2)CC1 > 76.9 µM
CCSc1nnc(NC(=O)c2ccc(C)o2)s1 > 76.9 µM
CCn1c(=O)cc(SCC(=O)N2CCCCC2)c2ccccc21 > 76.9 µM
CCc1c(C)nc(N2CCN(Cc3ccccc3)CC2)[nH]c1=O > 76.9 µM
CCn1nc(C(=O)OCC(=O)N2c3ccccc3CC2C)c2ccccc2c1=O (stereo not given) > 76.9 µM
Cc1ccc(C)c(-c2nc3ccc(N)cc3[nH]2)c1
CN(C)c1cc[n+](Cc2ccccc2)cc1 > 76.9 µM
COc1cccc(S(=O)(=O)Nc2ccc(C(=O)N3CCOCC3)cc2)c1 > 76.9 µM
Cc1ccc(N2C(=O)Nc3ccc(Br)cc3C2(O)C(=O)NCCCN(C)C)cc1C (stereo not given) > 76.9 µM
O=C(CN1CCN(C(=O)c2cccs2)CC1)NC1CCCCC1 > 76.9 µM
Cc1ccc(S(=O)(=O)Cn2nnnc2CN2CCCC3(CCCCC3)C2)cc1 > 76.9 µM
O=C(CCc1ccc(S(=O)(=O)N2CCOCC2)cc1)Nc1cc(Cl)ccc1N1CCOCC1 > 76.9 µM
O=C(c1cc(-n2cnnc2)ccc1Cl)N1CCN(c2nc(-c3ccccc3)cs2)CC1 > 76.9 µM
COCCn1nnnc1C(c1ccc(OC)cc1)N1CCN(c2ccccc2F)CC1 (stereo not given) > 76.9 µM
CCc1c(C)nc(N)n2c(SCC(=O)N3CCCC(C)C3)nnc12 (stereo not given) > 76.9 µM
COC(=O)c1sc(NC(=O)c2ccoc2C)nc1C > 76.9 µM
CCCn1cnc2c(c1=O)c1nc3ccccc3nc1n2CCC1=CCCCC1 > 76.9 µM
CC(C)OC(=O)CSc1nc2ncc(Cl)cc2[nH]1 > 76.9 µM
Cn1c(-c2ccccc2)cnc1SCc1nc2ccccc2c(=O)[nH]1 > 76.9 µM
CCCC1(C(=O)OCC)NC(c2ccc(N(C)C)cc2)C2C(=O)N(c3ccccc3)C(=O)C21 (stereo not given) > 76.9 µM
